# From PubChem BioAssay AID1508623 (National Center for Advancing Translational Sciences (NCATS), 2021)
# The campaign covered roughly 48,000 compounds. About 450 (0.94%) were called active. Inconclusive results (about 19%) are left out. Calls come from the whole dose curve; as a rule, active = well fitted inhibition curve with a large enough effect; inconclusive = small, poorly fitted or top-dose-only effect; inactive = no such curve, though single readings can be large or run the other way. Some of the results follow.
# Experiment: Primary qHTS for Identification of Small Molecule Inhibitors of Huntingtin Promoter Activity; note: nearly all actives have a fitted effect of over 50% in size
# Details: HEK293 HTT promoter firefly luciferase reporter (activity 0% = vehicle and -100% = no light), 24 h; series mostly up to 57.5 µM; activity change, negative = inhibition: at the top concentration
# Method in brief: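 HEK293 Fluc reporter, 2,500 cells/well, 24 h pre-culture; cpds up to 57.5 uM final, 24 h 37 degrees C; Dual-Glo, 10 min RT; normalized vehicle = 0%, zero RLU = -100%.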
row,Compound,"activity change, negative = inhibition"
1,CCc1ccccc1NC(=O)c1nc(-c2ccncc2)no1,inactive: 8.79%
2,Cc1sc2c(c1C)c(=O)n(-c1ccc(Cl)cc1)c(=O)n2Cc1c(F)cccc1Cl,inactive: -13.2%
3,COc1cc(C2C(C(=O)Nc3ccccc3)=C(C)Nc3nc(SCc4ccccc4F)nn32)cc(OC)c1OC (configuration not stated),inactive: -18.2%
4,CC1CCN(S(=O)(=O)c2cc(C(=O)Nc3ccc(Br)cc3F)n(C)c2)CC1,inactive: -34.1%
5,Cc1ccc(-c2cc(C(=O)N3CCN(c4ccccc4)CC3)c3ccccc3n2)cc1C,inactive: 14.6%
6,Cc1ccc(Cn2c(CCCNC(=O)C3CCCCC3)nc3ccccc32)cc1,inactive: -24.3%
7,O=C(Cn1ncc2c(Cl)cccc21)NCc1cccc(Br)c1,inactive: -4.46%
8,CCN1CCCC1CNC(=O)c1cc(S(N)(=O)=O)ccc1OC (configuration not stated),inactive: -5.27%
9,Cc1ccc(N2CC(NC(=O)C(=O)c3c[nH]c4ccccc34)CC2=O)cc1 (configuration not stated),inactive: -26.5%
10,CC(C)CCNC(=O)c1ccc2c(c1)N(Cc1ccccc1F)C(=O)c1ccccc1S2=O (configuration not stated),inactive: -25.2%
11,COc1ccccc1OCC(=O)NCC1(N(C)C)CCCCC1,inactive: 73.7%
12,O=C(CSc1nc(=O)n(Cc2cccnc2)c2c1CCC2)Nc1ccc(F)cc1F,inactive: -18.7%
13,N#C/C(=C\c1c(Oc2ccc(Br)cc2)nc2ccccn2c1=O)c1nc2ccccc2s1,inactive: 11.3%
14,CC(=O)N1CCc2cc(Br)cc(S(=O)(=O)N3CCN(c4cccc(C)c4)C(C)C3)c21 (configuration not stated),inactive: -0.526%
15,COc1ccc(N2CCN(C(=O)CS(=O)(=O)c3cccc4nsnc34)CC2)cc1,inactive: -30%
16,CCCCN1CCc2nc(N3CCN(C)CC3)ncc2C1,inactive: -5.45%
17,COc1ccc(CCN2CCC(CNC(=O)c3cnn(-c4ccccc4)c3C3CCN(C(=O)OC(C)(C)C)CC3)CC2)cc1,inactive: -12%
18,Cc1nn(C(C)C(=O)NC2CCC(C)CC2)c(=O)c2cc3sccc3n12 (configuration not stated),inactive: -0.12%
19,COc1ccccc1N1CCN(C(=O)c2cn(C)c3ccc(S(=O)(=O)N4CCOCC4)cc3c2=O)CC1,inactive: -15.5% [at 11.5 µM]
20,COc1ccc(Cl)cc1NC(=O)c1cc(C)nn1-c1ccccc1,inactive: -21.4%
21,COc1ccc(OC)c(S(=O)(=O)N2CC=C(c3c(C)n(CC(=O)N4CCCC4)c4ccccc34)CC2)c1,inactive: 0%
22,O=S(=O)(c1ccc(Cl)cc1)c1nnn2c1nc(N1CCCCC1)c1sccc12,inactive: -1.57%
23,Fc1ccccc1-n1ncc2c1ncn1nc(Cc3ccccc3)nc21,inactive: 33.7%
24,Cc1cn(C)c(CC(=O)N2CCN(c3ccccc3F)CC2)c1C(=O)O,inactive: -11.6%

row,Compound,"activity change, negative = inhibition"
1,COc1ccc(-c2nc3sc(CCNC(=O)c4ccccc4C)c(C)n3n2)cc1,inactive: -21.8%
2,Cc1ccc2c(c1)-c1c(c(C(=O)N3CCN(c4cc(Cl)ccc4C)CC3)nn1C)CS2,inactive: -8.93%
3,CC(CNC(=O)CCS(=O)(=O)c1ccc2c(c1)oc(=O)n2C)c1ccccc1 (configuration not stated),inactive: -4.26%
4,Cc1cccc(NC(=O)N2CCC(CN3CCOCC3)CC2)c1C,inactive: 3.12%
5,Cc1cccn2c(=O)c3cc(C(=O)N(Cc4ccccc4)C(C)C)sc3nc12,inactive: -3.71%
6,CCCCN(C)CCNC(=O)c1ccc2c(c1)NC(=O)CN2,inactive: -10.5%
7,Cc1c(C(=O)NCCc2ccc(S(N)(=O)=O)cc2)sc2nc3n(c(=O)c12)CCCC3,inactive: 6.09%
8,Cc1cccc(Cn2c(C)c(CNC3CCCCC3)c(C(=O)O)c2C)c1,inactive: -15.2%
9,Cc1cc(Cl)ccc1NC(=O)C1CCN(c2nnc(-n3c(C)ccc3C)s2)CC1,inactive: -28.1%
10,CCOC(=O)c1ccccc1NC(=O)N1CCOc2ccc(Cl)cc21,inactive: -27.2%
11,CCc1ccccc1NC(=O)CSc1nc2c(oc3ccccc32)c(=O)n1-c1ccccc1F,inactive: -29.9%
12,COc1ccc(-c2ccc3cc(C(=O)O)ccc3c2)cc1C12CC3CC(CC(C3)C1)C2,inactive
13,Cc1ccc(NC(=O)C(=O)NCC(c2cccnc2)N2CCN(Cc3ccccc3)CC2)cc1 (configuration not stated),inactive: -20.3%
14,Cc1cc(C)c(NC(=O)CSc2nc(-c3ccc(F)cc3)nc3c2Cc2c(CO)cnc(C)c2O3)c(C)c1,inactive: -11.8%
15,CCCCCCCCCCCC(=O)[O][Sn]([CH2]CCC)([CH2]CCC)[O]C(=O)CCCCCCCCCCC,inactive: 11.4%
16,COc1ccc(S(=O)(=O)N(CC(=O)Nc2cccc(C)c2)c2ccc(C)cc2)cc1OC,inactive: -29.5%
17,COc1ccccc1CNC(=O)c1ccc(N2CCCC2)c(NC(=O)NCc2ccc(F)cc2)c1,inactive: -27%
18,CCCCSCCCNC(=O)C1CCN(Cc2nc(-c3cccc(Br)c3)oc2C)CC1,inactive: -2.44%
19,O=C(Cn1ncc2c3ccccc3n(Cc3ccccc3F)c2c1=O)N1CCCCC1,inactive: 12.3%
20,CCOc1ccc(CCNC(=O)c2[nH]c3cc(OC)ccc3c2Sc2ccccc2)cc1OCC,inactive: -29.9%
21,CC(C)CN(CCCNC(=O)CN1N=C(c2ccccc2)CCC1=O)CC(C)C,inactive: -8.09%
22,COc1ccc(N2CCN(c3ccc(-c4nc(-c5cccc(C)c5)no4)cc3[N+](=O)[O-])CC2)cc1,inactive: 25.1%
23,O=C(NCCC1=CCCCC1)c1ccc2c(c1)N(Cc1cccc(Cl)c1)C(=O)c1ccccc1S2(=O)=O,inactive: -45.5%
